The RNAGym collection of RNA variant scans (doi:10.7554/elife.90254)
Read counts are not given, so values of variants with three or more changes are uncertain.

B1: LINE1-mini (parent)
chain: GGCAGAGCUCAACACAGCGUGGCAAAGUGGCUGUGGCUAGACUGCC

Variants of: B1
Test: self-cleavage, relative activity (ratio to wild type); higher = more cleavage; in vitro, sequencing; the parent is a self-cleaving ribozyme

Question: For GGCAGAGCGCAACAAAGCGUGGCAAAGUGGCUGAGGCUACACUGCA [U9G C15A U34A G40C C46A], which self-cleavage is on record?
Answer: Its self-cleavage is 0.02.

Question: For GGCAGAGCGGAACACAGCUAGGCAAAGUGGGUGUGGCUAGACUGCU [U9G C10G G19U U20A C31G C46U], which self-cleavage is on record?
Answer: Its self-cleavage is 0.02.

Question: For GGCAGAGCGCAAUACAGCGUGGCUAAGUGGCGGUGGCUCGACUGCC [U9G C13U A24U U32G A39C], which self-cleavage is on record?
Answer: Its self-cleavage is 0.07.

Question: With GGCAGAGCGCAACAUAGCGUAGCAAAGUGGCUGUGGCUAGACUGCC [U9G C15U G21A] as the variant, how does the self-cleavage read?
Answer: Its self-cleavage is 0.01.

Question: With GGCAGAGCGCAACACAGCGUGGCAGUGUGGCUGCGGGUAGACUGCC [U9G A25G A26U U34C C37G] as the variant, how does the self-cleavage read?
Answer: The self-cleavage was 0.02.

Question: Which self-cleavage does the source give for GGCAGAGCGCAACACAGCGUGGCCAAGUGUCUGUGGCUAGACUGCC [U9G A24C G30U] here?
Answer: The self-cleavage was 0.04.

Question: For GGCAGAGCGCAACACAGCGUGGUAAAGUGGCUGUGGAUAGACUGCC [U9G C23U C37A], which self-cleavage is on record?
Answer: Its self-cleavage is 0.13.

Question: With GGCAGAGCGGAAAACAGCGUGGCAAAGUGGCUGUGGCUAGACUGCC [U9G C10G C13A] as the variant, how does the self-cleavage read?
Answer: The self-cleavage was 0.03.

Question: For GGCAGAGCGCAACACAGCAUGGCAAGGUGGCUGUGGCUAGACUGCC [U9G G19A A26G], which self-cleavage is on record?
Answer: Its self-cleavage is 0.14.

Question: For GGCAGAGCGCAACACAGCGUGGCAAAGUCGCUGUGGGUAGAAUGCC [U9G G29C C37G C42A], which self-cleavage is on record?
Answer: The self-cleavage was 0.01.

Question: Which self-cleavage does the source give for GGCAGAGCGUAACACAGCGUGGCAAAGUGGCUGUGCCUAGACUGCC [U9G C10U G36C] here?
Answer: Its self-cleavage is 0.11.

Question: Which self-cleavage does the source give for GGCAGAGCGCAACACAGUGUGGCAAAGUGUCUGUCGCUAGACUGCC [U9G C18U G30U G35C] here?
Answer: Its self-cleavage is 0.09.

Question: Which self-cleavage does the source give for GGCAGAGCGCAACACAGCGUGGCAAAUUGGCUGGGGCUAGACUGCC [U9G G27U U34G] here?
Answer: The self-cleavage was 0.02.

Question: With GGCAGAGCGCAACACAGCGUGGCUAAGUGGGCGUGGCUAGACUGCC [U9G A24U C31G U32C] as the variant, how does the self-cleavage read?
Answer: The self-cleavage was 0.04.

Question: Which self-cleavage does the source give for GGCAGAGCGCAACACAGCGAGGCAAAGUGGCUGAGGCUAGACUGCC [U9G U20A U34A] here?
Answer: The self-cleavage was 0.14.

Question: Which self-cleavage does the source give for GGCAGAGCGCAACACAGCCUGGCAAUGUGGAUGUGGCUAGACUGCC [U9G G19C A26U C31A] here?
Answer: Its self-cleavage is 0.21.

Question: Which self-cleavage does the source give for GGCAGAGCGUAACACAGCGUGGCAAAUUGGCUUUGGCUAGACUGCC [U9G C10U G27U G33U] here?
Answer: The self-cleavage was 0.08.

Question: For GGCAGAGCGCAACACAGCGUGGCAAAGUGGCUCUGGCUACACUGCC [U9G G33C G40C], which self-cleavage is on record?
Answer: Its self-cleavage is 0.03.

Question: For GGCAGAGCGCUACACAGCAUGGCAAAGUGGCUGUGGCUAGACUGCC [U9G A11U G19A], which self-cleavage is on record?
Answer: Its self-cleavage is 0.03.

Question: Which self-cleavage does the source give for GGCAGAGCGCUACACAGCUUGGCAACGUGGCUGUGGCUAGACUGCC [U9G A11U G19U A26C] here?
Answer: The self-cleavage was 0.

Question: With GGCAGAGCGCAAAACAUCUUGGCAAAGUGGCUGUAGCUAGACUGCC [U9G C13A G17U G19U G35A] as the variant, how does the self-cleavage read?
Answer: Its self-cleavage is 0.19.

Question: For GGCAGAGCGCAACAAAGCGUGGCAAAGUGGAUGUGGCUAGACUGCC [U9G C15A C31A], which self-cleavage is on record?
Answer: Its self-cleavage is 0.17.

Question: For GGCAGAGCGCAACACCGCGUGGCAAAGUGGCUGUGGCUAGACUUCA [U9G A16C G44U C46A], which self-cleavage is on record?
Answer: Its self-cleavage is 0.05.

Question: With GGCAGAGCGCAACACAGCGUGCCAAAGUGUCUGUCGCUAGACUGCC [U9G G22C G30U G35C] as the variant, how does the self-cleavage read?
Answer: The self-cleavage was 0.02.

Question: Which self-cleavage does the source give for GGCAGAGCGCAGCACAGCGUGGCUAAGUGGCUGUGGCUAUACUGCC [U9G A12G A24U G40U] here?
Answer: The self-cleavage was 0.01.

Question: With GGCAGAGCGUAACACACCGUGGCAACGUGGCUCUGGCUAGACUGCC [U9G C10U G17C A26C G33C] as the variant, how does the self-cleavage read?
Answer: Its self-cleavage is 0.02.

Question: For GGCAGAGCGCAACACAGCGUUGCAAAGUGCUUGUGGCUAGACUGCC [U9G G21U G30C C31U], which self-cleavage is on record?
Answer: The self-cleavage was 0.05.

Question: Which self-cleavage does the source give for GGCAGAGCGUAACACAGCGUGGCAAAUUGGCUGUGGCUAGACUGCC [U9G C10U G27U] here?
Answer: Its self-cleavage is 0.03.

Question: With GGCAGAGCGUAACACAGCGUGGCAACGUGGCUGUGUCUAGACUGCC [U9G C10U A26C G36U] as the variant, how does the self-cleavage read?
Answer: The self-cleavage was 0.01.

Question: Which self-cleavage does the source give for GGCAGAGCGCAACACAGCGUGGAAAGGUGGCUGUGGCUAGACCGCC [U9G C23A A26G U43C] here?
Answer: Its self-cleavage is 0.1.

Question: Which self-cleavage does the source give for GGCAGAGCGCAAGGCAGCGUGGCAAAGUGGCUGUGGCUAGACUACC [U9G C13G A14G G44A] here?
Answer: Its self-cleavage is 0.04.

Question: Which self-cleavage does the source give for GGCAGAGCGCAAAACAGCGUGGCAAAGUGGCUGUGGAUAGACUGCC [U9G C13A C37A] here?
Answer: Its self-cleavage is 0.38.

Question: With GGCAGAGCGCAACACUGCGUGGAAAAGUGGCUGUGGCUAGACCGCC [U9G A16U C23A U43C] as the variant, how does the self-cleavage read?
Answer: Its self-cleavage is 0.01.

Question: Which self-cleavage does the source give for GGCAGAGCGCAACACAGCGUGUCAAAGUGGCUGUGGUUAGACUGCC [U9G G22U C37U] here?
Answer: The self-cleavage was 0.04.

Question: With GGCAGAGCGCAACACACCGUGGCAAAGUGUCUGUGGCUAGACUCCC [U9G G17C G30U G44C] as the variant, how does the self-cleavage read?
Answer: Its self-cleavage is 0.01.

Question: With GGCAGAGCGCAACACAGCGUGGCAAUGUGGCUGUGGCUAGUCUGCC [U9G A26U A41U] as the variant, how does the self-cleavage read?
Answer: The self-cleavage was 0.07.

Question: Which self-cleavage does the source give for GGCAGAGCGCAUCACACCGUGGCAUAGUGGCUGUGGCUAUACUGCC [U9G A12U G17C A25U G40U] here?
Answer: Its self-cleavage is 0.07.

Question: With GGCAGAGCGCAACACAGCGUGGCUAAGUGGCUGUGGCUAGACUGUC [U9G A24U C45U] as the variant, how does the self-cleavage read?
Answer: The self-cleavage was 0.04.

Question: Which self-cleavage does the source give for GGCAGAGCGCAACAAAGUGUGGCAAAGUUGCUGUGCCUAGACUGCC [U9G C15A C18U G29U G36C] here?
Answer: Its self-cleavage is 0.02.

Question: Which self-cleavage does the source give for GGCAGAGCGCAACAGAGCGUGGCAAAGCAGCUGUGGCUAGACUGCC [U9G C15G U28C G29A] here?
Answer: Its self-cleavage is 0.01.

Question: With GGCAGAGCGCAACACAGCGUGGCAAAGUGGCUAUGGCUAGACUGCU [U9G G33A C46U] as the variant, how does the self-cleavage read?
Answer: The self-cleavage was 0.06.

Question: For GGCAGAGCGCAACACAGCGUGUCAAAGUGGCUGUGGCUAGGCUGCC [U9G G22U A41G], which self-cleavage is on record?
Answer: Its self-cleavage is 0.07.

Question: Which self-cleavage does the source give for GGCAGAGCGCAACACAGCGUGGCAAAGUGGCUGUGGAGAGACUGCC [U9G C37A U38G] here?
Answer: The self-cleavage was 0.03.

Question: Which self-cleavage does the source give for GGCAGAGCGCAACACAGCGUAGCAAAGUGGCCGUGGCUAGAGUGCC [U9G G21A U32C C42G] here?
Answer: Its self-cleavage is 0.

Question: Which self-cleavage does the source give for GGCAGAGCGCAACACAGCGUGGCAAAGUGGCUCUGGCUAGCCUGCU [U9G G33C A41C C46U] here?
Answer: Its self-cleavage is 0.07.

Question: With GGCAGAGCGCAAAACAGCGUGGCAAAGUGGCUGUGGCUAGACUUCC [U9G C13A G44U] as the variant, how does the self-cleavage read?
Answer: Its self-cleavage is 0.24.

Question: Which self-cleavage does the source give for GGCAGAGCGCAACACCGCGUGGCAGAGUGGUUGUGGCUAGACUGCC [U9G A16C A25G C31U] here?
Answer: The self-cleavage was 0.02.

Question: With GGCAGAGCGAAACACAGCGUGGCAAAGUGUCUGUGGCUACAAUGCU [U9G C10A G30U G40C C42A C46U] as the variant, how does the self-cleavage read?
Answer: Its self-cleavage is 0.03.

Question: For GGCAGAGCGCAACACAGGGUGGCAAAGUGGCAGUGGCUAGACUGCC [U9G C18G U32A], which self-cleavage is on record?
Answer: Its self-cleavage is 0.02.

Question: With GGCAGAGCGCACCACACCGUGGCAAAGUGUCUGCGGCUAGACAGCC [U9G A12C G17C G30U U34C U43A] as the variant, how does the self-cleavage read?
Answer: Its self-cleavage is 0.

Question: With GGCAGAGCGCAACACAGCGUGGCAAAGUUGCUGUGGCUAGAGUGCC [U9G G29U C42G] as the variant, how does the self-cleavage read?
Answer: The self-cleavage was 0.03.

Question: With GGCAGAGCGCAACACAGCGAGGCAAAGUGGCUGUGGCUAGGCUGCC [U9G U20A A41G] as the variant, how does the self-cleavage read?
Answer: The self-cleavage was 0.

Question: Which self-cleavage does the source give for GGCAGAGCGCAACACAGCGUGGUAAAGUGGAUGUGGCUAGACUGCC [U9G C23U C31A] here?
Answer: Its self-cleavage is 0.05.

Question: For GGCAGAGCGCAACACAGCGUGGCUACGUGGUUGUGGCUAGACUGCC [U9G A24U A26C C31U], which self-cleavage is on record?
Answer: The self-cleavage was 0.01.

Question: For GGCAGAGCGCAACACAGCGUGGCAAAGUAGCUGUGGCUAUACUGCC [U9G G29A G40U], which self-cleavage is on record?
Answer: The self-cleavage was 0.02.

Question: For GGCAGAGCGCAACUCAGGGUGGCAAAGUGGCUGUCGCUAGACUGCC [U9G A14U C18G G35C], which self-cleavage is on record?
Answer: The self-cleavage was 0.12.
